Article PMC4336329 (PLoS ONE, 2015)
Among all 310,000 compounds or so, about 14,000 (4.5%) showed an effect of 50% or more. The effect is printed as a negative number. The list shows a part of the results.

These molecules were tested against human ether-à-go-go-related gene (hERG) potassium channel (human, UniProt Q12809) (assay: primary screen, population patch clamp on CHO cells stably expressing hERG).
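Also: peak tail current of the secondary pulse compared with the same well before compound.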

Chain of human ether-à-go-go-related gene (hERG) potassium channel (Q12809 whole entry, looked up): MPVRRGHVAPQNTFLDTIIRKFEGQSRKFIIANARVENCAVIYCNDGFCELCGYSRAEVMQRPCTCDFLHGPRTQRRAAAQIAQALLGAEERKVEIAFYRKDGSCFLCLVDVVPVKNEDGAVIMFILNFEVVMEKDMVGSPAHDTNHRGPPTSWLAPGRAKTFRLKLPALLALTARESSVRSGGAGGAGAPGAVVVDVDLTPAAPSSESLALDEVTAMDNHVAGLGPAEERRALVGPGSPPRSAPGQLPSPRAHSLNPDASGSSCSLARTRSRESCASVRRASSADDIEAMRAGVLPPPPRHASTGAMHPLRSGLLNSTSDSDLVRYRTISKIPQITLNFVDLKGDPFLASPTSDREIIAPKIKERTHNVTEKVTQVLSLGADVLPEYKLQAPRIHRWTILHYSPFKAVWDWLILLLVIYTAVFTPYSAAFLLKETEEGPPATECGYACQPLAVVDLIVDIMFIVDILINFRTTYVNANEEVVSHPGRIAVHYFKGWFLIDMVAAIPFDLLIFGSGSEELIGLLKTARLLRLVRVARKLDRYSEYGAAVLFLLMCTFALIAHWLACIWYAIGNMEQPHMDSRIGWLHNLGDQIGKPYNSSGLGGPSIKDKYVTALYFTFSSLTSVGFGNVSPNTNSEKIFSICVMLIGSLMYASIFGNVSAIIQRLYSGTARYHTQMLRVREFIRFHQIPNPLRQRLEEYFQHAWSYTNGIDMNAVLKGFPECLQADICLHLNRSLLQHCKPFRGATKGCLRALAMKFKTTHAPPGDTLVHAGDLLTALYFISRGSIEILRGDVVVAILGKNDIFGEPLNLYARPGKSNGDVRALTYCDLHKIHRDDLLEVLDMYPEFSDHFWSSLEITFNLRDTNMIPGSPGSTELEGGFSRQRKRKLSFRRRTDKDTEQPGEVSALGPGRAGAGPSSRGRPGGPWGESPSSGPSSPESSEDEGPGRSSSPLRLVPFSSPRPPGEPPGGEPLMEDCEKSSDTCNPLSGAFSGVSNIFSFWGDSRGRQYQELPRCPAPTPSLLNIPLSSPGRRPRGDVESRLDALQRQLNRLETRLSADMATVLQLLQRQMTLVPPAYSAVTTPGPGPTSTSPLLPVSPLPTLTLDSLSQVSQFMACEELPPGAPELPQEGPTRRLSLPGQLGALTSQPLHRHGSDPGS

SMILES	hERG current change (%, negative = inhibition) at 10uM
CS(=O)(=O)c1ccc(Cl)c(NC(=O)COC(=O)Cc2c[nH]c3ccccc23)c1	-7.78%
CCCn1c(SCC(=O)Nc2cc(S(=O)(=O)N3CCOCC3)ccc2Cl)n[nH]c1=O	-1.03%
Cc1cc2c(cc(C(=O)OC(C(=O)NC3CCCCC3)C(C)C)n2C)o1 (stereo not drawn)	5.89%
CCn1c(SCC(=O)Nc2cc(C)nn2-c2ccccc2)nnc1-c1cccs1	-12.9%
COc1cccc(NC(=O)CN(C)C(=O)c2ccc(-c3ccc(Cl)cc3)o2)c1	-10.4%
N=C1C(c2nc(-c3ccc(F)cc3)cs2)=C(O)CN1CCCN1CCOCC1	-39.5%
COc1cc(Br)cc(C2C3=C(CCCC3=O)N(c3ccc(F)cc3)C3=C2C(=O)CCC3)c1O	-17.1%
Cc1cc(C(=O)CSc2nnnn2-c2ccccc2)c(C)n1CCc1ccccc1	9.18%
CC1(C)C(=O)OC(C(=O)c2ccccc2)C2(CCCCC2)C1=O (stereo not drawn)	-2.19%
CCN(CC)c1ccc(/C=C/c2ccc3ccc(OC)cc3[n+]2CC)cc1.[I-]	-82%
CCOC(=O)C1=Nc2ccccc2/C1=C\c1c(O)n(C)c(=O)n(C)c1=O	7.8%
COc1cccc(N2C(=NC(=O)C3CCCO3)SC3CS(=O)(=O)CC32)c1 (stereo not drawn)	14.9%
Cc1ccc(/C=N/NC(=O)c2ccco2)cc1	11.3%
CC1(C)CSC(=S)N1S(=O)(=O)c1ccccc1	-19%
Cc1ccc(CS(=O)(=O)c2ncc(Cl)c(C(=O)Nc3nnc(C(C)C)s3)n2)cc1	9.25%
COc1ccc(C(=O)NCC(=O)N2CCN(c3ncccn3)CC2)cc1OC	15%
O=C(O)C(=O)O.OC(COCc1ccc(Cl)cc1)CN1CC=C(c2ccccc2)CC1 (stereo not drawn)	-77.2%
Cc1[nH]n(-c2ccc(Cl)cc2)c(=O)c1C(=O)c1ccccc1	28.6%
C[C@H](NC(=O)c1nc[nH]c1C(=O)N[C@H](C)c1ccccc1)C(=O)OCc1ccccc1	-1.78%
O=C(CCNC(=O)c1ccc([N+](=O)[O-])cc1)Nc1ccc(N2CCOCC2)cc1N1CCOCC1	-4.63%
COc1ccc(S(=O)(=O)N(C)C)cc1NC(=O)CCNC(=O)c1ccccc1OC	15.6%
CCC(C)NC(=O)Cc1cn(C)c2ccccc12 (stereo not drawn)	-5.23%

SMILES	hERG current change (%, negative = inhibition) at 10uM
CC[C@@H](C)[C@@H](C(=O)N1CCN(C(=O)OC(C)(C)C)CC1)n1cc(CCC(=O)O)nn1	21.6%
Cc1cc(C(=O)NNC(=O)CCCCC(=O)NNC(=O)c2cc(C)[nH]n2)n[nH]1	-10.8%
CCC(Cc1ccccc1)NC(=O)CN(C)S(=O)(=O)c1ccc2c(c1)c(=O)n(C)c(=O)n2C (stereo not drawn)	-23.5%
COc1ccc(C(=O)NCC(=O)OCC(=O)N(C)c2ccccc2)cc1	4.72%
O=c1c2ccccc2[nH]c(=S)n1CC1CCCO1 (stereo not drawn)	10.4%
Cc1ccc(NC(=O)COC(=O)CN2C(=O)C3CCCCC3C2=O)cc1C (stereo not drawn)	2.1%
Cc1cc(C)n(-c2ccc(C(=O)Nc3cccnc3)cc2)n1	1.32%
O=C(COC(=O)c1ccncc1)NC(=O)C1CCCCC1	0.14%
COc1ccccc1NC(=O)c1ccc(NC(=O)CSc2nncn2C)cc1	-4.38%
Cc1nnc(NC(=O)C2c3ccccc3Oc3ccccc32)s1	5.04%
O=C(NCc1ccc(F)cc1)C1CC(=O)N(C2CCCCCCC2)C1 (stereo not drawn)	29.8%
CCOC(=O)N1CCN(C(=O)CN(Cc2ccccc2)S(=O)(=O)c2ccc(OC)c(Cl)c2)CC1	-13.4%
Fc1ccc2nc(-c3ccccc3)nc(SCc3nnc(-c4ccccc4)o3)c2c1	-5.22%
CCOC(=O)C(C)Oc1cccc2c(=O)n(CC(=O)NCc3ccc4c(c3)OCO4)ccc12 (stereo not drawn)	11.7%
O=C(Cn1cccc1C(=O)c1ccccc1)NCCC1=CCCCC1	-19.5%
CCOc1ccc(NC(=O)CCN2CCN(c3ccccc3OC)CC2)cc1	-33.8%
COC(=O)C1(C)NC(c2ccc(F)cc2)C2C(=O)N(c3ccccc3)C(=O)C21 (stereo not drawn)	14.8%
Cc1ccccc1C(=O)N1CCN(c2ccc([N+](=O)[O-])c(NCc3cccnc3)c2)CC1	-27%
Cc1ccc(C(=O)NCC(=O)NCCCc2ccccc2)cc1	12.3%
Cl.c1coc(CN2CCN(C(c3cccs3)c3nnnn3C3CCCC3)CC2)c1 (stereo not drawn)	-19.5%
COc1ccccc1N(C)S(=O)(=O)c1ccc(C(=O)NCC(C)C)cc1	-17.6%
O=c1c2ccccc2nc(SCc2cccc(F)c2)n1C1CCCC1	-5.51%

SMILES	hERG current change (%, negative = inhibition) at 10uM
CCOC(=O)c1c(NC(=O)COC(=O)CCOc2ccccc2C)sc(C(=O)NC)c1C	20.1%
COc1ccc(C2=C/C(=C\c3ccc(OC(C)=O)cc3)C(=O)O2)cc1	11.9%
COc1ccc(N2CCN(C(=O)COCC(=O)O)CC2)cc1	26.1%
COC(=O)c1ccc(NC(=O)CSc2nc(=O)n3cccc(C)c3n2)cc1	-10.2%
Cc1cccnc1NC(=O)C(c1ccccc1)c1ccccc1	14.2%
Cc1nc(-c2ccc(S(=O)(=O)Nc3cccc(S(N)(=O)=O)c3)s2)cs1	4.83%
Cc1cccc(OCc2n[nH]c(=S)o2)c1	23.5%
O=C(Nc1cccc(O)c1)c1cc(S(=O)(=O)N2CCCC2)ccc1Cl	-4.47%
O=C(CN1C(=O)c2ccccc2C1=O)N1CCN(C(=O)c2ccco2)CC1	-7.2%
CCNC(=O)CN1C(=O)NC2(CCCCCC2)C1=O	14.3%
COc1cc(C(=O)NCC(=O)N/N=C/c2ccco2)cc(OC)c1OC	15.4%
CCCCNc1oc(-c2ccc(OC)cc2)nc1S(=O)(=O)c1ccccc1	3%
Cc1cccc(/C=N/NC(=O)c2ccccc2OCc2cccc(Br)c2)n1	-35.3%
Cc1cc(C(=O)CSc2nc3ccccc3o2)c(C)n1C1CC1	15.2%
COCCn1c(C)cc(C2=NNC(=Nc3ccc(OC)cc3)SC2)c1C	1.3%
O=C(O)C(C(=O)O)=C1C2CC3CC(C2)CC1C3	21.6%
CCc1ccc(/C=N/NC(=O)c2cc(C3CC3)nc3ccc(Br)cc23)s1	3.74%
O=C(NC1CCCC1)C1C2C=CC3(CN(Cc4cccs4)C(=O)C13)O2 (stereo not drawn)	8.93%
OCC[C@@H]1C[C@@H](O)[C@H](O)[C@]2(CCCc3ccccc3O2)O1	2.34%
O=C(/C(=C/O)N=Nc1ccccc1)c1cccs1	19.2%
COC(=O)N/N=C/c1ccc(-c2cc(Cl)cc(Cl)c2)o1	-2.4%
CCOc1cc(N2CCOCC2)c(OCC)cc1NC(=O)c1[nH]c(C)c(C(C)=O)c1C	13.4%

SMILES	hERG current change (%, negative = inhibition) at 10uM
C=CCn1c(COc2ccc(CC)cc2)nnc1SCC(=O)N(C)C1CCS(=O)(=O)C1 (stereo not drawn)	-16.3%
Cn1c(=O)[nH]c2c(nc(-c3ccc(Cl)cc3)n2C)c1=O	20.3%
COc1cc(NC(=O)n2ncc3cc(Cl)ccc32)cc(OC)c1	21.3%
COc1ccc(NC(=O)C(=O)N2N=C3CCCCC3C2(O)C(F)(F)F)cc1 (stereo not drawn)	7.19%
COC(CNC(=O)c1ccc2nc(-c3cccs3)c(-c3cccs3)nc2c1)OC	10.9%
CCc1nc(C)cn1S(=O)(=O)c1ccc(Br)cc1	15.3%
Cc1ccc(Cl)cc1NC(=O)C1CCCN(S(C)(=O)=O)C1 (stereo not drawn)	6.63%
COc1ccc(-c2cc(C(=O)O)c3ccccc3n2)c(OC)c1	11.9%
O=C(CSc1nncn1-c1cccnc1)Nc1cccc(C(F)(F)F)c1	-57.7%
COC(=O)/C(=N/Nc1ccccc1)N1CCCc2ccccc21	-10%
Cn1c(=O)cc(N2CCN(C(=O)c3ccco3)CC2)[nH]c1=O	13.1%
O=C(COC(=O)COc1ccccc1)Nc1ccccc1OC(F)F	2.06%
C=CCn1c(CNC(=O)c2ccco2)nnc1SCC(=O)Nc1cccc(F)c1	-19.7%
Cc1cccc(NC(=O)CSc2nnc(-c3ccc(S(=O)(=O)N4CCCC4)cc3)o2)c1	-5.59%
Cc1cc(C(=O)OCC(=O)NC2CCC(C)CC2)c(C)o1 (stereo not drawn)	10.8%
O=C(ON=C1CCN(S(=O)(=O)c2ccccc2)CC1)c1ccccc1	-31.6%
Cc1ccc(S(=O)(=O)NCC(=O)OCC(=O)NCc2cccs2)cc1	-3.82%
CCCNc1ncnc2sc(C)c(C)c12	-1.05%
CCOC(=O)C1CCN(S(=O)(=O)c2ccc(NC(=O)c3ccco3)cc2)CC1	-46.3%
CCCc1cc(=O)[nH]c(SCC(=O)Nc2cc(S(=O)(=O)N3CCCCC3)ccc2C)n1	-7.69%
COCCNC(=S)Nc1ccc([N+](=O)[O-])cc1C	32.5%
